Among the data in PubChem BioAssay AID463173 (ICCB-Longwood Screening Facility, Harvard Medical School, 2010) are survival values, retold here.

Hit rate of the full screen: of about 52,000 compounds, about 4,300 (8.3%) were called active. Cut-off read from the data, not from the text of the source: active = survival mostly below about 52% (no sharp cut-off); inactive = mostly above about 56%. This is one part of the list.

In this assay the test system is DeltatarO mutant. As to the kind of experiment: S. aureus survival, RN4220 and DeltatarO strains – OD600, teichoic acid synthesis inhibitors, primary screen (AID 463173). Particulars: S. aureus RN4220 wild type/DeltatarO growth, OD600, 18 h, hits give low values, screened at 18.75 µg/mL (by protocol).
Turning to `COc1ccc(C2C(=O)N(C3CCCCCC3)CC(=O)N2Cc2ccccc2)cc1` (configuration not stated), the survival is inactive: 76%.
The result for `Cc1cccc2cc(C#N)c(SCCN3CCCCC3)nc12` reads inactive: 110%; that for `CC(CNC(=O)c1ccc(Nc2nc3ccccc3n3nnnc23)cc1)c1ccccc1` (configuration not stated), inactive: 75%.
`COc1ccc(Cl)cc1S(=O)(=O)n1ccnc1`: the survival was inactive: 90%.
Turning to `C=CCn1c(SCC(=O)Nc2ccc(F)cc2)nc2ccccc2c1=O`, the survival was inactive: 93%.
For `NC(=O)C1CCN(C(=O)c2ccc3c(c2)N(Cc2cccc(Cl)c2)C(=O)c2ccccc2S3(=O)=O)CC1`, the survival was inactive: 69%.
With `CCOC(=O)c1c(-c2ccc(C)cc2C)csc1NC(=O)c1ccccc1Cl`, the survival is inactive: 47%.
Consider `Cc1ccc2c(=O)cc(C(=O)Nc3c(C(=O)c4ccccc4)oc4ccccc34)oc2c1`, for which the survival is inactive: 76%.
`O=C(NCCCN1CCCCC1)c1ccc2c(c1)sc1nc(-c3ccc(F)cc3)cn12`: the survival was active: 53%.
For `N#CC1=C(N)Oc2c(c(=O)oc3ccccc23)C1`, the survival was active: 31%.
As for `Cc1ccc(NC(=O)CCCN2C(=O)COc3ccc(C)cc32)c(C)c1`, the survival was inactive: 112%.
Take `Cn1c(Cc2cccs2)nnc1SCC(=O)N1CCCc2ccccc21`: the survival was inactive: 103%.
The result for `CCc1cccc(C)c1NC(=O)c1nc2ccccc2nc1N1CCCCC1` reads inactive: 95%.
With `COc1ccc2c(Sc3ccccc3)c(C(=O)N3CCC(C)CC3)[nH]c2c1`, the survival is inactive: 69%.
For `Cc1ccc(N2C(=O)CSC23C(=O)N(CC(=O)Nc2ccc(C)cc2C)c2ccccc23)cc1` (configuration not stated), the survival was inactive: 81%.
`CCCCOC(=O)/C(C#N)=C/c1ccc(-c2ccc(Br)cc2)o1`: the survival is inactive: 68%.
For `CCC(=O)N1CCN(c2nc3c(C)cccc3s2)CC1`, the survival was inactive: 96%.
The result for `COc1ccc(OC(=O)CSc2nnc(-c3ccc(F)cc3)o2)cc1` reads inactive: 109%; that for `CCCn1c2ccccc2c2cnn(CC(=O)NC(C)CC)c(=O)c21` (configuration not stated), inactive: 72%.
Turning to `CCOc1ccc(/C=C/c2nc(C#N)c(N3CCCCCC3)o2)cc1`, the survival was inactive: 68%.
With `O=C(COc1ccccc1)N1CCNCC1`, the survival is inactive: 124%.
The result for `COc1ccccc1NC(=O)Cn1c(=O)n(Cc2nc(C)no2)c(=O)c2cc3c(cc21)OCO3` reads inactive: 73%.
The result for `COc1ccccc1NC(=O)N1CCOc2ccccc21` reads inactive: 91%; that for `Cc1cc(C)n2nc(CNS(=O)(=O)c3ccc(F)cc3)nc2n1`, inactive: 94%.
As to `COC(=O)c1cc2oc3ccccc3c2n1CC(=O)Nc1ccc(C)cc1Cl`, the survival was inactive: 84%.
For `CCCN(CCC)CCNC(=O)Cn1cnc2sc(C)c(S(=O)(=O)N3CCN(c4ccccc4OC)CC3)c2c1=O`, the survival is inactive: 79%.
In the case of `COc1cccc(CNC(=O)c2ccc(CN3CC(=O)N4CCCCC4C3=O)cc2)c1` (configuration not stated), the survival is inactive: 82%.
Consider `COc1ccccc1/C=C(\C#N)C(=O)NCC1CCCO1` (configuration not stated), for which the survival is inactive: 129%.
The figure for `CCn1c(C(=O)NCc2ccccc2)cc2sc(Cl)cc21` is active: 34%.
With `Cc1ccc(NC(=O)c2cc(-c3cccs3)nc3ccccc23)c(C)c1`, the survival is active: 57%.
With `CC(C)CCn1c(=O)c2sccc2n2c(CCCC(=O)Nc3ccc(F)c(Cl)c3)nnc12`, the survival was inactive: 48%.
Consider `O=C(NCc1ccc(F)cc1Cl)c1ccc(CSCc2ccccc2Cl)o1`, for which the survival was inactive: 54%.
As for `CC(C)(C)C1=CC(CO)CC(CO)C1` (configuration not stated), the survival is inactive: 67%.
The result for `Cc1ccc(N2CCN(C(=O)Nc3cn(CC(C)C)c(=O)c4ccccc34)CC2)c(C)c1` reads inactive: 124%.
For `CC(C)Oc1ccc(CNC(=O)c2cnc3sc(N4CCCCCC4)nn3c2=O)cc1`, the survival is inactive: 80%.
`CCN1C(=O)C2C(c3ccco3)NC(C(=O)OC)(c3ccccc3)C2C1=O` (configuration not stated): the survival is inactive: 92%.
As to `CCCCC(=O)Nc1cccc(-c2nc3ccccc3s2)c1`, the survival was active: 41%.
Take `COc1ccc(-n2ncc3c(=O)n(CC(=O)NC(C)C)cnc32)cc1`: the survival is inactive: 83%.
The figure for `CCCCN(C)CC(O)Cn1cc(/C=C/C(=O)c2ccc(OCC)cc2)c2ccccc21` (configuration not stated) is active: 6%; for `Cc1cccc(-n2ccnc2SCC(=O)Nc2cc(C(F)(F)F)ccc2Cl)c1` it is inactive: 73%; for `CCOc1ccc(-n2c(SCC(=O)N3CCCc4ccccc43)nc3c([nH]c4ccccc43)c2=O)cc1` it is inactive: 57%.
Turning to `CCOc1ccccc1NC(=O)CCS(=O)(=O)c1ccc(OC)cc1`, the survival is inactive: 94%.
Take `CCc1ccc(NC(=O)c2cc(CN3CCOCC3)on2)cc1`: the survival is inactive: 88%.
For the molecule `CCOC(=O)c1[nH]c(C)c(C(=O)NCCc2ccccc2)c1C`, the survival was inactive: 80%.
`O=C(CCn1c(=O)c2ccccc2n(Cc2ccc(Cl)cc2)c1=O)NCc1ccc2c(c1)OCO2`: the survival is inactive: 95%.
On to `CCC(=O)C1=C(c2ccccc2)N(C(=O)CC)n2c(nnc2C2CCCCC2)S1`, for which the survival is inactive: 55%.
The result for `O=C(Nc1ccccc1[N+](=O)[O-])c1csnn1` reads inactive: 73%; that for `CC(C)c1ccc(Nc2c(-c3ccsc3)nc3ccc(Cl)cn23)cc1`, inactive: 101%.
For `Cc1ccc2nc(NCCc3ccc(Cl)cc3)c3nncn3c2c1`, the survival is inactive: 68%.
In the case of `CCOC(=O)C1=C(CN(C)Cc2ccccc2)NC(=O)NC1c1ccc(OC(C)C)cc1` (configuration not stated), the survival was inactive: 77%.
For the molecule `Cc1ccc(NC(=O)CN2C(=O)C(c3ccc(F)cc3)=NC2(C)C)c(C)c1`, the survival was inactive: 90%.
Regarding `Cc1cccc(C(=O)Nc2sc3c(c2C(=O)Nc2ccccc2)CCC3)c1`, the survival is inactive: 66%.
Consider `CCOc1ccccc1NC(=O)C(=O)NCC(c1cccnc1)N1CCN(c2ccccc2)CC1` (configuration not stated), for which the survival is inactive: 54%.
Turning to `Cc1ccc(C=C2C(=O)N(C)C(=O)N(C)C2=O)cc1`, the survival was inactive: 82%.
With `O=C1C2CCCN2C(=O)N1c1ccc(Br)cc1` (configuration not stated), the survival was inactive: 108%.
The figure for `Cc1ccc(CNC(=O)c2ccc(NC(=O)c3nsc4ccccc34)cc2)cc1` is inactive: 83%; for `O=C(Nc1ccc2nc(SCC(=O)N3CCc4ccccc43)sc2c1)c1ccc(Cl)cc1` it is inactive: 80%.
For `O=C(CSc1nc(-c2cccs2)cc(C(F)(F)F)n1)Nc1ccccc1Cl`, the survival was inactive: 121%.
On to `Cc1ccccc1NC(=O)CSc1nc2ccc(NC(=O)c3ccco3)cc2s1`, for which the survival was inactive: 57%.
On to `COC(=O)C1(CO)NC(c2ccc(Cl)cc2)C2C(=O)N(C)C(=O)C21` (configuration not stated), for which the survival is inactive: 66%.
As to `Clc1ccc(-c2noc3ncnc(N4CCCCC4)c23)cc1`, the survival is inactive: 86%.
As to `CCOc1cc(Cl)c(S(=O)(=O)n2cc(C)nc2CC)cc1Cl`, the survival was active: 3%.
Regarding `CN(C)c1ccc(CNS(=O)(=O)c2csc(C(N)=O)c2)cc1`, the survival is inactive: 60%.
Take `COc1cccc(NC(=O)Nc2cc(-c3cn4cccnc4n3)ccc2OC)c1`: the survival is inactive: 70%.
On to `CCn1cc2nc(SCc3ccccc3)n(Cc3ccc(C)cc3)c(=O)c2n1`, for which the survival is inactive: 93%.
In the case of `O=C(NCC(c1ccco1)S(=O)(=O)c1cccs1)c1ccc(C(F)(F)F)cc1` (configuration not stated), the survival is inactive: 78%.
For the molecule `CCOc1ccc(C(CC(=O)Nc2ccc(C(=O)OC)cc2)N2Cc3ccccc3C2=O)cc1OC` (configuration not stated), the survival is inactive: 73%.
The result for `COc1cccc(NC(=O)c2oc3ccc(S(=O)(=O)N4CCC5(CC4)OCCO5)cc3c2C)c1` reads inactive: 105%; that for `CC(C)(C)c1ccc(OCc2cc(=O)n3c4c(sc3n2)CCCC4)cc1`, inactive: 88%.
On to `COc1ccc(-c2noc(CSc3nnc(C)n3-c3ccc(C)cc3)n2)cc1`, for which the survival was active: 57%.
In the case of `COc1ccc(N2CC(C(=O)Nc3ccccc3-c3nc(-c4ccc(C)cc4)no3)CC2=O)cc1` (configuration not stated), the survival was active: 54%.
In the case of `O=C(NCCOc1ccccc1Cl)c1ncn[nH]1`, the survival is inactive: 87%.
Take `Cn1c(=O)c2c(nc(NCc3ccccc3)n2Cc2ccc(Cl)c(Cl)c2)n(C)c1=O`: the survival was inactive: 42%.
Consider `COc1ccc(C(=O)NCCc2nc3ccccc3[nH]2)cc1`, for which the survival was inactive: 127%.
With `CCCSc1nc2c(c(=O)[nH]1)C(c1ccc(O)c(OCC)c1)CC(=O)N2` (configuration not stated), the survival was inactive: 112%.
The result for `CCc1ccccc1NC(=O)COC(=O)c1cn(CC)c2nc(C)ccc2c1=O` reads inactive: 81%; that for `CCCCOC(=O)c1ccc(Nc2nc3ccc(C)cc3n3cnnc23)cc1`, inactive: 75%; that for `CN(C)c1ccc(NC(=O)C2(c3cccs3)CCOCC2)cc1`, inactive: 117%.
On to `O=C(Nc1cc(Cl)ccc1O)c1cc2nc(-c3ccc4c(c3)OCO4)cc(C(F)(F)F)n2n1`, for which the survival was inactive: 86%.
For `O=C(COc1ccc(F)cc1)OCc1cc(=O)n2nc(C3CC3)sc2n1`, the survival is inactive: 83%.
The figure for `Cc1ccc(CCNC(=O)C2CCCN(S(=O)(=O)c3ccc4c(c3)oc(=O)n4C)C2)cc1` (configuration not stated) is inactive: 86%.
`CCOc1ccccc1Nc1nc(N)nc(CN(C)C2CCCCC2)n1`: the survival was inactive: 86%.
`CCc1ccc(-n2nc(C)c3c(C)cc(=O)n(CC(=O)N(CC)Cc4ccccc4)c32)cc1`: the survival was inactive: 90%.
In the case of `CCc1ccc(C(=O)c2cn(Cc3ccccc3)c3cc(OC)c(OC)cc3c2=O)cc1`, the survival is inactive: 58%.
Turning to `Oc1c(C(c2ccc(Cl)cc2Cl)N2CCCC2)sc2nc(-c3ccco3)nn12` (configuration not stated), the survival is inactive: 68%.
As to `COc1ccccc1NC(=O)CSc1nc(-c2cccc(Cl)c2)nc2c1Cc1c(CO)cnc(C)c1O2`, the survival is inactive: 87%.
With `CCOc1ccc(CCNC(=O)CCSCc2cccc(Cl)c2)cc1OCC`, the survival is inactive: 81%.
On to `O=C(CC(=O)Nc1ccccc1F)Nc1ccc2nc3n(c(=O)c2c1)CCCCC3`, for which the survival was inactive: 92%.
On to `Cc1ccc(-c2nc(SCC(=O)Nc3cc(C)on3)c3c(=O)n(C)c(=O)n(C)c3n2)cc1`, for which the survival is inactive: 83%.
On to `Cc1cccc(N2CCN(C(=O)c3ccc4c(c3)N(Cc3cccc(Cl)c3)C(=O)c3ccccc3S4=O)CC2)c1C` (configuration not stated), for which the survival was inactive: 118%.
The result for `O=C(CSCc1ccc(F)cc1)N1CCc2c([nH]c3ccccc23)C1c1ccccc1` (configuration not stated) reads inactive: 101%; that for `COC(=O)C1C2C=CC3(CN(C4CCCC4)C(=O)C13)O2` (configuration not stated), inactive: 66%.
